The list shows a part of the results. Most values come without repeats; read them as rough.
Experiments:
Assay in all cases: cell count relative to DMSO control; melanoma cells; higher = more viable cells
Conditions in all cases: library dose: low library concentration; 72 h
[1] = system: MZ2-MEL
[2] = system: MeWo
[3] = system: RPMI7951
[4] = system: RVH-421
[5] = system: SkMel28
[6] = system: SkMel2
[7] = system: SkMel30
[8] = system: SkMel5
[9] = system: UACC257
[10] = system: UACC62
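Also: cell number obtained by counting DAPI-stained nuclei in high-throughput microscope images with image analysis software, screen run in 1,536-well plates.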

Structure (SMILES) | cell count [1] [%] | cell count [2] [%] | cell count [3] [%] | cell count [4] [%] | cell count [5] [%] | cell count [6] [%] | cell count [7] [%] | cell count [8] [%] | cell count [9] [%] | cell count [10] [%]
N.N.[Cl][Pt][Cl] [cisplatin] + Oc1cc(-c2nc(-c3ccccc3)[nH]c2-c2ccncc2)ccc1Cl [L779450] (first compound 1.6 µM, partner dose 0.2 µM) | 76.1 | 94.6 | 76.4 | 107 | 88.2 | 99.2 | 78.6 | 97.3 | 96.2 | 102
Cn1cc(C2=C(c3cn(C4CCN(Cc5ccccn5)CC4)c4ccccc34)C(=O)NC2=O)c2ccccc21 [Enzastaurin] + CC1(C)NC(=O)N(c2ccc([N+](=O)[O-])c(C(F)(F)F)c2)C1=O [nilutamide] (first compound 0.8 µM, partner dose 1 µM) | 101 | 90.8 | 103 | 91.2 | 103 | 93 | 101 | 82.2 | 75.6 | 112
N.N.[Cl][Pt][Cl] [cisplatin] + C/C(O)=C(\C#N)C(=O)Nc1cc(Br)ccc1Br [LFM-A13] (first compound 1.6 µM, partner dose 2 µM) | 101 | 101 | 97.2 | 107 | 90.8 | 86.5 | 91.6 | 89.7 | 84.6 | 92.9
Cn1cc(C2=C(c3cn(C4CCN(Cc5ccccn5)CC4)c4ccccc34)C(=O)NC2=O)c2ccccc21 [Enzastaurin] + Oc1cc(-c2nc(-c3ccccc3)[nH]c2-c2ccncc2)ccc1Cl [L779450] (first compound 0.8 µM, partner dose 0.2 µM) | 88.8 | 117 | 94.5 | 87.9 | 80 | 96.4 | 98.7 | 119 | 97.2 | 91.4
N.N.[Cl][Pt][Cl] [cisplatin] + CN(C)S(=O)(=O)c1ccc2c(c1)/C(=C/c1cc3c([nH]1)CCCC3)C(=O)N2 [SU6656] (first compound 1.6 µM, partner dose 0.4 µM) | 106 | 97.4 | 93.2 | 82 | 87.6 | 97.2 | 99.8 | 93.4 | 65.8 | 74.6
N.N.[Cl][Pt][Cl] [cisplatin] + O=C(O)C(=O)Nc1sc2c(c1C(=O)O)CCNC2 [TCS401] (first compound 1.6 µM, partner dose 1.66667 µM) | 97.1 | 92.2 | 98.7 | 95.9 | 90.3 | 94.5 | 73.3 | 90.5 | 94.3 | 75
Cn1cc(C2=C(c3cn(C4CCN(Cc5ccccn5)CC4)c4ccccc34)C(=O)NC2=O)c2ccccc21 [Enzastaurin] + CCCCCCCCCCCC1=C(O)C(=O)C=C(O)C1=O [Embelin] (first compound 0.8 µM, partner dose 1.2 µM) | 94.3 | 123 | 94.5 | 81.2 | 105 | 97.1 | 98.8 | 95.8 | 105 | 112
Cn1cc(C2=C(c3cn(C4CCN(Cc5ccccn5)CC4)c4ccccc34)C(=O)NC2=O)c2ccccc21 [Enzastaurin] + CN(NC(=O)CC(=O)NN(C)C(=S)c1ccccc1)C(=S)c1ccccc1 [STA4783] (first compound 0.8 µM, partner dose 0.006 µM) | 101 | 107 | 84 | 111 | 105 | 98.4 | 113 | 104 | 97.4 | 102
C[As](C)SC[C@H](NC(=O)CC[C@H](N)C(=O)O)C(=O)NCC(=O)O [Darinaparsin] + CC1(C)NC(=O)N(c2ccc([N+](=O)[O-])c(C(F)(F)F)c2)C1=O [nilutamide] (first compound 0.4 µM, partner dose 1 µM) | 100 | 96.3 | 93.8 | 101 | 96.1 | 99.5 | 91.2 | 101 | 82.2 | 84.6
Cn1cc(C2=C(c3cn(C4CCN(Cc5ccccn5)CC4)c4ccccc34)C(=O)NC2=O)c2ccccc21 [Enzastaurin] + O=C(CCCCCCC(=O)Nc1ccccc1)NO [vorinostat] (first compound 0.8 µM, partner dose 0.08 µM) | 103 | 106 | 92.2 | 100 | 92.3 | 96.4 | 95 | 0.527 | 104 | 81.4
Cn1cc(C2=C(c3cn(C4CCN(Cc5ccccn5)CC4)c4ccccc34)C(=O)NC2=O)c2ccccc21 [Enzastaurin] + O=c1cc(-c2cccc3c2Sc2ccccc2S3)oc(N2CCOCC2)c1 [KU55933] (first compound 0.8 µM, partner dose 1 µM) | 96.6 | 107 | 94.5 | 87.6 | 111 | 101 | 104 | 106 | 87.9 | 90.6
N.N.[Cl][Pt][Cl] [cisplatin] + C#Cc1cccc(Nc2ncnc3cc(OCCOC)c(OCCOC)cc23)c1 [erlotinib] (first compound 1.6 µM, partner dose 0.8 µM) | 93 | 95.7 | 99.6 | 89.4 | 101 | 102 | 114 |  |  | 103
C[As](C)SC[C@H](NC(=O)CC[C@H](N)C(=O)O)C(=O)NCC(=O)O [Darinaparsin] + C=CCn1c(=O)c2cnc(Nc3ccc(N4CCN(C)CC4)cc3)nc2n1-c1cccc(C(C)(C)O)n1 [MK1775] (first compound 0.4 µM, partner dose 0.02 µM) | 104 | 91.5 | 97.9 | 86.7 | 93 | 88.1 | 74 | 65.9 | 62.9 | 72.7
N.N.[Cl][Pt][Cl] [cisplatin] + COc1cc2ncnc(Nc3ccc(Oc4ccccc4)cc3)c2cc1OC [SrcI1] (first compound 1.6 µM, partner dose 2 µM) | 89.2 | 100 | 111 | 119 | 103 | 100 | 113 | 103 | 93.8 | 91.5
Cn1cc(C2=C(c3cn(C4CCN(Cc5ccccn5)CC4)c4ccccc34)C(=O)NC2=O)c2ccccc21 [Enzastaurin] + Cc1ccc(NC(=O)c2cccc(N(C)C)c2)cc1NC(=O)c1ccc(O)cc1 [ZM336372] (first compound 0.8 µM, partner dose 2 µM) | 87.9 | 93.7 | 79.5 | 89.5 | 93.9 | 104 | 91.5 | 90.7 | 105 | 106
Cn1cc(C2=C(c3cn(C4CCN(Cc5ccccn5)CC4)c4ccccc34)C(=O)NC2=O)c2ccccc21 [Enzastaurin] + O=C(O)[C@@H]1[O][Sb](=[O])([O][Sb]2(=[O])[O][C@H]([C@H](O)CO)[C@H](O)[C@H](C(=O)O)[O]2)[O][C@H]([C@H](O)CO)[C@@H]1O [stibogluconate] (first compound 0.8 µM, partner dose 2 µM) | 97.5 | 108 | 81.7 | 77.1 | 77.4 | 91 | 112 |  |  | 106
N.N.[Cl][Pt][Cl] [cisplatin] + C=CCNC1=C2C[C@@H](C)C[C@H](OC)[C@H](O)[C@@H](C)/C=C(\C)[C@H](OC(N)=O)[C@@H](OC)/C=C\C=C(/C)C(=O)NC(=CC1=O)C2=O [Tanespimycin] (first compound 1.6 µM, partner dose 0.002 µM) | 97.4 | 105 | 71.8 | 86.9 | 93.9 | 94.6 | 121 |  |  | 93.1
N.N.[Cl][Pt][Cl] [cisplatin] + Nc1cccc2c1CN(C1CCC(=O)NC1=O)C2=O [lenalidomide] (first compound 1.6 µM, partner dose 1 µM) | 90.9 | 92.9 | 99.5 | 73.6 | 99.8 | 98.2 | 98.2 |  |  | 94.2
C[As](C)SC[C@H](NC(=O)CC[C@H](N)C(=O)O)C(=O)NCC(=O)O [Darinaparsin] + Cn1nnc2c(C(N)=O)ncn2c1=O [temozolomide] (first compound 0.4 µM, partner dose 2 µM) | 98.9 | 88.3 | 100 | 95.7 | 82.1 | 105 | 108 |  |  | 87
C[As](C)SC[C@H](NC(=O)CC[C@H](N)C(=O)O)C(=O)NCC(=O)O [Darinaparsin] + OCCn1cc(-c2cnc3nnn(Cc4ccc5ncccc5c4)c3n2)cn1 [PF04217903] (first compound 0.4 µM, partner dose 1 µM) | 105 | 91.7 | 104 | 78.6 | 80.9 | 102 | 129 | 97 | 81.8 | 79.7
Cn1cc(C2=C(c3cn(C4CCN(Cc5ccccn5)CC4)c4ccccc34)C(=O)NC2=O)c2ccccc21 [Enzastaurin] + Cc1nc(Nc2ncc(C(=O)Nc3c(C)cccc3Cl)s2)cc(N2CCN(CCO)CC2)n1 [dasatanib] (first compound 0.8 µM, partner dose 0.004 µM) | 85.4 | 111 | 54.2 | 81.1 | 86 | 102 | 101 |  |  | 79.1
N.N.[Cl][Pt][Cl] [cisplatin] + O=C(O)c1ccc2c(c1)nc(Nc1cccc(Cl)c1)c1ccncc12 [CX4945] (first compound 1.6 µM, partner dose 0.4 µM) | 91.6 | 92 | 99.5 | 98.2 | 120 | 106 | 122 |  |  | 123
Cn1cc(C2=C(c3cn(C4CCN(Cc5ccccn5)CC4)c4ccccc34)C(=O)NC2=O)c2ccccc21 [Enzastaurin] + C[As](C)SC[C@H](NC(=O)CC[C@H](N)C(=O)O)C(=O)NCC(=O)O [Darinaparsin] (first compound 0.8 µM, partner dose 0.4 µM) | 87.2 | 108 | 105 | 77 | 106 | 109 | 130 |  |  | 101
Cn1cc(C2=C(c3cn(C4CCN(Cc5ccccn5)CC4)c4ccccc34)C(=O)NC2=O)c2ccccc21 [Enzastaurin] + O=C(Nc1ccccc1)c1cc([N+](=O)[O-])ccc1Cl [GW9662] (first compound 0.8 µM, partner dose 2 µM) | 94 | 116 | 94.2 | 96.7 | 93.6 | 90.6 | 90.2 | 99.6 | 91.9 | 106

Reference: the supplement of paper PMC4604168 (melanoma cell lines)
